# Laboratory results reported in PubChem BioAssay AID485294 (National Center for Advancing Translational Sciences (NCATS), 2010).
# The whole screen tested about 370,000 compounds, of which about 150 (0.041%) were called active. Inconclusive means that the source gave no clear call. Such entries were picked first, then a sample of the others. Calls follow the shape of the dose curve; as a rule, active = well fitted inhibition curve with a large enough effect; inconclusive = small, poorly fitted or top-dose-only effect; inactive = flat fitted curve, though single readings scatter. Potencies of inconclusive entries are left out as doubtful fits.
# Target: Beta-lactamase (Escherichia coli (strain K12)) (UniProt P00811)
# Chain of UniProt P00811 (P00811 whole entry, looked up): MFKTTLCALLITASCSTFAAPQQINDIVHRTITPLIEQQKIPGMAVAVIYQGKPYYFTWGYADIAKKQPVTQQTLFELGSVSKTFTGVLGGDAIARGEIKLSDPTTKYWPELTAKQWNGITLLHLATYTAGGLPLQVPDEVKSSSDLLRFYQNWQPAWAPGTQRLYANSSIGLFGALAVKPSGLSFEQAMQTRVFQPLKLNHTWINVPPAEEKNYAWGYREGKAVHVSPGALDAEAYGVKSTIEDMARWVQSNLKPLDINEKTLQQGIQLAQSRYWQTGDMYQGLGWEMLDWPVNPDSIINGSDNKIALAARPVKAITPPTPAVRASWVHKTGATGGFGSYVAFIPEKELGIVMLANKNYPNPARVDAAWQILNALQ
# Test: qHTS Inhibitors of AmpC Beta-Lactamase (assay with detergent); also: nearly all actives have a fitted effect of over 25% in size;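 as to activity change, negative = inhibition: 0% = no-compound wells and -100% = no-enzyme wells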
# Conditions: AmpC hydrolysis of nitrocefin, absorbance 480 nm, 0.01% Triton; activity change, negative = inhibition: at 114 µM (top of the series)
# Summary of the method: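 20 mM phosphate pH 7.0 + 0.01% (detergent screen) or 0.0001% Triton X-100; 5.3 nM AmpC reagent; cpd preinc 15 min RT; nitrocefin (800 uM stock) to start; A480 q20 s × 4 min; Activity was normalised to no-enzyme and no-compound control wells.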
# Potency is read from the fitted curve at half-maximal effect; tags tell the direction and shape of the fitted curve.
Structure (SMILES),Potency,"activity change, negative = inhibition"
CC(C)c1ccc(/C=C/C(=O)CCC(=O)O)cc1,"inconclusive [inhibitor, partial curve]",–
COc1ccc(C(=O)Nc2ccc(Cn3ccnc3)cc2)cc1OC,"inconclusive [inhibitor, full curve, poor fit]",–
CC(C)(C)c1ccc(OCc2ccc(C(=O)N/N=C3\CC4CC=CC34)cc2)cc1 (stereo unspecified),"inconclusive [inhibitor, single point]",–
O=C(COc1ccc2c(c1)CCC2)N1CCN(c2cccc(C(F)(F)F)c2)CC1,"inconclusive [inhibitor, full curve, poor fit]",–
N/C(=N\OC(=O)Cc1cccc2ccccc12)c1ccccn1,–,inactive: 4.58%
O=C(CSc1nnc(-c2ccco2)o1)N1CCOCC1,"inconclusive [inhibitor, full curve, poor fit]",–
Cc1cc(C)c(C#N)c(Nc2ccccc2)n1,–,inconclusive: -18.8% [inhibitor]
O=c1c(S(=O)(=O)c2ccccc2)cn(Cc2ccc(F)cc2)c2cc(N3CCCC3)c(F)cc12,–,inactive: 5.69%
CC(C)(C)OC(=O)NNc1c2ccccc2nc2ccccc12,"inconclusive [inhibitor, full curve, poor fit]",–
CCCN(Cc1ccccc1)C(=S)Nc1ccc(SC(F)F)cc1,"inconclusive [inhibitor, single point]",–
CCOC(=O)c1c(NC(=O)Cc2cccs2)sc(C(=O)N2CCCCC2)c1C,"inconclusive [inhibitor, single point]",–
C=CCn1cc(C(=O)NCc2cccnc2)c(=O)c2cc(S(=O)(=O)N(CC)CC)ccc21,"inconclusive [inhibitor, full curve, poor fit]",–
COCCNC(=O)CN(C(=O)Cn1nnc2ccccc21)c1cccc(C)c1C,"inconclusive [inhibitor, single point]",–
O=C(Nc1ccccc1)NN(C(=O)CCl)c1ccccc1,–,inactive: 0.663%
OCCN1CCN(CCCN2c3ccccc3Sc3ccc(Cl)cc32)CC1,–,inactive: -6.51%
COc1cccc(CNC(=O)CCc2c(C)c3cc4c(C)coc4cc3oc2=O)c1,–,inactive: 17.9%
O=C1NC2c3ccccc3C(=O)N2c2c1cnn2-c1ccccc1 (stereo unspecified),"inconclusive [inhibitor, partial curve, poor fit]",–
C=CCOc1c(Cl)cc(CNCCCN2CCOCC2)cc1OC,"inconclusive [inhibitor, partial curve, poor fit]",–
Cc1cccc(C)c1NC(=O)COC(=O)c1ccc2[nH]c3c(c2c1)CCCC3,–,inactive: -2.93%
COc1ccc(NC(=O)NCCC2=CCCCC2)cc1,–,inactive: -9.49%
COc1ccccc1NS(=O)(=O)c1ccc(C)c(NS(=O)(=O)c2cc(C(=O)O)cc(C)c2C)c1,"inconclusive [inhibitor, single point]",–
Cc1ccc(-c2cc(-c3ccc(C)cc3)[n+](-c3ccccc3)c(-c3ccc(C)cc3)c2)cc1,–,inactive: 1.28%
Cc1nnc(NCCN2CCOCC2)[nH]c1=O,"inconclusive [inhibitor, full curve, poor fit]",–

Structure (SMILES),Potency,"activity change, negative = inhibition"
COc1ccc2nc(N/C(N)=N/C(=S)Nc3ccccc3)nc(C)c2c1,–,inactive: 5.72%
COc1ccc2c(c1)c1c3n2CCN(C)C3=NCC1,"inconclusive [inhibitor, partial curve]",–
CC(C)(Oc1ccc(Cl)cc1)C(=O)Nc1ccc(-c2nc3ncccc3o2)cc1,–,inactive: 7.72%
COc1ccc(C(=O)c2ccsc2N)cc1,–,inactive: -14.6%
CCCOc1ncnc2c1[nH]c1ccc(OC)cc12,–,inactive: -3.79%
NC(=O)Nc1ccc(C(=O)OCC(=O)N2CCc3ccccc3C2)cc1,"inconclusive [inhibitor, partial curve, poor fit]",–
Cn1ccc2cc(S(=O)(=O)N3CCN(C(=O)Nc4cccc(F)c4)CC3)ccc21,–,inactive: 9.35%
CC(=O)c1ccc(OCCCC(=O)NCc2nnc3ccccn23)cc1,"inconclusive [inhibitor, full curve, poor fit]",–
Cc1ccccc1C(=O)N1CCC(C(=O)Nc2cccc(F)c2)CC1,"inconclusive [inhibitor, single point]",–
COc1ccc(NC(=O)C(c2ccc(OC)cc2)N(C)C(=O)Cc2cccs2)cc1 (stereo unspecified),"inconclusive [inhibitor, full curve, poor fit]",–
Cc1ccc(Cn2cc(S(=O)(=O)c3ccccc3)c(=O)c3cc(F)c(N4CCOCC4)cc32)cc1,–,inactive: -4.99%
Cn1c(=O)[nH]c(=O)c2c1nc1n2CCCN1CCc1ccccc1,"inconclusive [inhibitor, full curve, poor fit]",–
Cc1cc(Cl)ccc1Oc1ncc(-c2ccc(Cl)cc2)cn1,"inconclusive [inhibitor, full curve]",–
Cc1ccc(C2OC(=O)c3ccccc32)cc1 (stereo unspecified),"inconclusive [inhibitor, full curve, poor fit]",–
CC(=O)c1sc(NC(=O)CS(=O)(=O)c2ccccc2)nc1-c1ccccc1,"inconclusive [inhibitor, full curve, poor fit]",–
Clc1ccc2c(c1)C(c1ccccc1Cl)=NCc1nnc(Br)n1-2,–,inactive: -1.21%
CCOc1ccccc1N(C)C(=O)c1sc2nc3n(c(=O)c2c1C)CCCC3,–,inactive: -0.14%
COc1ccc(NC(=O)CSc2nc(-c3ccccc3)cc(-c3cc(OC)c(OC)c(OC)c3)c2C#N)c(OC)c1,–,inactive: -2.88%
COc1ccccc1-c1cc(C(=O)Nc2c(C)nn(Cc3ccc(Cl)cc3)c2C)no1,–,inactive: 20.5%
O=C(NCCc1ccc(Cl)cc1)C1CCCN1C(=O)Nc1ccc(F)cc1 (stereo unspecified),"inconclusive [inhibitor, single point]",–
CC(=O)Nc1ccc(NC(=O)Nc2cccc(Cl)c2)cc1,"inconclusive [inhibitor, full curve, poor fit]",–
CCn1c(O)c(/C=C2\C=Nc3ccccc32)sc1=O,"inconclusive [inhibitor, partial curve]",–
c1ccc2[nH]c(CN3CCN(c4ncnc5c4oc4ccccc45)CC3)nc2c1,"inconclusive [inhibitor, partial curve]",–
